From PubChem BioAssay AID1159614 (National Center for Advancing Translational Sciences (NCATS), 2016)
About 65 (0.1%) of roughly 45,000 compounds were called active. Calls follow the shape of the dose curve; as a rule, active = well fitted activation curve with a large enough effect; inconclusive = small, poorly fitted or top-dose-only effect; inactive = no such curve, though single readings can be large or run the other way. The list shows a part of the results.

The compounds below were run against Galactocerebrosidase (Homo sapiens) (UniProt P54803) (assay: A Novel Cell-Based Assay to Identify Small Molecules for B -Galactocerebrosidase). Settings: 145M-Twi-hGALC-G270D cells (Twitcher mouse brain line with human GALC G270D), HMU-beta-Gal fluorescence, 48 h; series mostly up to 57.5 µM; activation: at the top concentration.
Outline: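 Fluorescence readout: HMU-β-gal cleavage by mutant GALC (0.1 mM final, citrate/phosphate pH 5.2 with 1 mg/mL taurocholate), stopped with carbonate/bicarbonate plus Triton X-100. Cells: murine Twitcher 145M-Twi expressing human G270D GALC; qHTS for activators.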
Also: 0% is about no effect; nearly all actives have a fitted effect of over 65% in size.

UniProt P54803, sequence (P54803 whole entry, looked up): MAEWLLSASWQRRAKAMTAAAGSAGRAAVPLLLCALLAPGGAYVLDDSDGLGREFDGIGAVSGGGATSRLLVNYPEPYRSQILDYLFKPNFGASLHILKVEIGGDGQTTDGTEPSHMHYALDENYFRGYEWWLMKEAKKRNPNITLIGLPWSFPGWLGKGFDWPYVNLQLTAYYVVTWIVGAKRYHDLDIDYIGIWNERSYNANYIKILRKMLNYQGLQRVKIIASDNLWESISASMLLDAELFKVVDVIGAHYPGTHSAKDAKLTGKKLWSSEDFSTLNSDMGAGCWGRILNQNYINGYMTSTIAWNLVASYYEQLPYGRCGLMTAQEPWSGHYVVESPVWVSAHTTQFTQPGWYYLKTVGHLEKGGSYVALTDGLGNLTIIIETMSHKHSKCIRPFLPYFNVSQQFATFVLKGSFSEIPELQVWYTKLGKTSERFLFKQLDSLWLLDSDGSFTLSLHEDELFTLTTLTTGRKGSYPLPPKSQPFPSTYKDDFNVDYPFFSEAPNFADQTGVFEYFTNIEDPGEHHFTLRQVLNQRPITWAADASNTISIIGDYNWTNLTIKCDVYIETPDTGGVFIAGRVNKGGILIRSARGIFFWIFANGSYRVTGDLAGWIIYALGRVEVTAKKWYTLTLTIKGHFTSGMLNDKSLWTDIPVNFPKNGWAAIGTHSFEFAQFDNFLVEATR

activation, inactive:
COc1cc(Cl)c(C)cc1NC(=O)Cn1cc(S(=O)(=O)N2CCN(c3ccccc3F)CC2)c2ccccc2c1=O -8.1%
Cc1cccc(CCNC(=O)C2CCC(CNS(=O)(=O)c3c(C)cc(C)cc3C)CC2)c1 (stereo unspecified) -12.4%
O=C(Cc1ccc(NC(=O)N2CCCCc3ccccc32)cc1)NCc1ccccc1Br -10%
COc1ccc(OC)c(NC(=O)CCNS(=O)(=O)c2cccc3nsnc23)c1 -2.14%
O=C(NCc1ccc(F)cc1)c1c2c(nc3ccccc13)C(=O)N(C1CCCCC1)C2 -11%
COc1ccccc1CNc1ccc(-c2nc(-c3ccccn3)no2)cc1[N+](=O)[O-] -4.38%
CCOc1ccc2nc(S(N)(=O)=O)sc2c1 -0.972%
N[C@H](C(=O)O)c1ccc(O)cc1 -10.7% [at 23.8 µM]
Cc1ccc(NC(=O)CN(C)S(=O)(=O)c2ccc3c(c2)n(C)c(=O)c(=O)n3C)c(C)c1 -8.15%
N#Cc1ccc(OC(=O)c2cc(-c3ccc(Cl)cc3)on2)cc1 1.12%
Cc1cccc(NS(=O)(=O)c2ccc3[nH]c(=O)[nH]c3c2)c1C -22.2%
O=C(CCC1N=C2c3ccccc3N=C(SCC(=O)Nc3ccccc3F)N2C1=O)NCc1ccco1 (stereo unspecified) -11.3%
CCOc1ccc(-c2c(C)nn3c(C)c(C(=O)NCc4cccc(OC)c4)cnc23)cc1OCC -12.7%
CCc1ccc(CN2C(=O)c3ccccc3C2C(=O)NC2CCCCCC2)cc1 (stereo unspecified) -9.75%
CC(C)(C)C(=O)Nc1ccc(-c2nc3ccccc3s2)cc1 -17.5%
Cc1nn(C(=O)COc2ccc(Cl)cc2)c(C)c1Sc1ccccc1 -18.7%
CCOC(=O)c1ccc(NC(=O)CC2C(=O)N(c3ccccc3)C(=O)N2Cc2ccc(C)cc2)cc1 (stereo unspecified) -9.29%
CCOC(=O)c1c(NC(=O)c2ccc(S(=O)(=O)N3CCC(C)CC3)cc2)sc2c1CCN(C(C)C)C2 -27.8%
COc1ccc(CCNC(=O)CCCn2c(=O)c3ccccc3n(CC(=O)Nc3cccc(C)c3)c2=O)cc1OC 5.82%
COc1ccc(C(=O)Nc2cnc3ccccn3c2=O)cc1 -15.7%
Cc1oc(-c2ccccc2)nc1Cn1c(SCc2cccc(C(F)(F)F)c2)nc2cccnc21 1.37%
CC(=O)Nc1ccc(S(=O)(=O)NCc2ccc3c(c2)CCN3C(C)=O)cc1 -13.4%
CCc1ccccc1Nc1nn2c(=O)c3ccc(C(=O)NC4CCC(C)CC4)cc3nc2s1 (stereo unspecified) -25.7%
CCOc1cc(C(=O)N(Cc2nc(-c3ccc(C)cc3)no2)C(C)C)cc(OCC)c1OCC -34%
COc1ccc(-n2ncc(C(=O)N3CCN(Cc4ccccc4)CC3)c2C2CCN(C(=O)OC(C)(C)C)CC2)cc1 7.1%
CCc1cnc2c(c1SCc1c(F)cccc1Cl)c(=O)n(C)c(=O)n2C -11.4%
